Data: the supplement of paper PMC9446081
Among all 39,000 compounds or so, about 220 (0.56%) showed activity. Some of the results follow.

The compounds below were run on Escherichia coli K-12 BW25113 (assay: relative growth (OD600 normalised to plate interquartile mean) (fraction); higher = less growth inhibition, active = 0.2 or less). Conditions: 50 µM; LB; incubation time: overnight (16-24 h).
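Note: static incubation at 37 °C against the wild-type strain, values averaged over two biological replicates.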

| Compound | relative growth |
| --- | --- |
| CCc1cccc2cc[nH]c12 | inactive: 0.997 |
| Cc1noc(C)c1NC(=O)Nc1ccc2c(c1)C(=O)N([C@H](C)CO)C[C@H](C)[C@@H](CN(C)CC1CCCCC1)OCCCC[C@@H](C)O2 | inactive: 1.01 |
| O=C(C[C@H]1C[C@@H]2c3cc(NS(=O)(=O)c4ccc(F)cc4)ccc3O[C@@H]2[C@@H](CO)O1)NCCc1ccccc1 | inactive: 1 |
| COc1ccc(NC(=O)N(C)C[C@@H]2OCc3ccccc3-c3c(n(C)c4ccccc34)C(=O)N([C@@H](C)CO)C[C@@H]2C)c(OC)c1 | inactive: 0.977 |
| Cc1noc(C)c1S(=O)(=O)N(C)C[C@H]1Oc2ccc(NC(=O)C3CCCCC3)cc2CC(=O)N([C@H](C)CO)C[C@H]1C | inactive: 1.01 |
| Cc1noc(C)c1S(=O)(=O)N(C)C[C@@H]1Oc2ccc(N(C)C)cc2CC(=O)N([C@@H](C)CO)C[C@H]1C | inactive: 0.999 |
| NC1CCSCC1 | inactive: 1.02 |
| CC1(C)OC2CC3C4CCC5=CC(=O)C=CC5(C)C4C(O)CC3(C)C2(C(=O)CO)O1 (stereo unspecified) | inactive: 1.05 |
| CC(C)NC(=O)Nc1ccc2c(c1)C(=O)N([C@@H](C)CO)C[C@H](C)[C@@H](CN(C)Cc1ccc3c(c1)OCO3)O2 | inactive: 1 |
| CC(C)CC#Cc1cnc2c(c1)C(=O)N([C@@H](C)CO)C[C@H](C)[C@@H](CN(C)C(=O)c1ccc3c(c1)OCO3)O2 | inactive: 1.01 |
| C[C@H](CO)N1C[C@H](C)[C@@H](CN(C)Cc2ccc(C(=O)O)cc2)Oc2ccc(NS(=O)(=O)c3cn(C)cn3)cc2C1=O | inactive: 1.01 |
| C[C@H]1CN([C@@H](C)CO)C(=O)Cc2cc(NC(=O)Cn3cnnn3)ccc2O[C@H]1CN(C)Cc1ccncc1 | inactive: 0.962 |
| COc1ccccc1C#Cc1cnc2c(c1)C(=O)N([C@@H](C)CO)C[C@H](C)[C@@H](CN(C)S(=O)(=O)c1cn(C)cn1)O2 | inactive: 0.961 |
| N[C@@H](COCc1ccccc1)C(=O)O | inactive: 1.01 |
| C[C@@H]1CCCCO[C@H](CN(C)Cc2ccccc2)[C@H](C)CN([C@@H](C)CO)C(=O)c2cc(NS(=O)(=O)c3ccccc3)ccc2O1 | inactive: 0.988 |
| Cc1noc(C)c1NC(=O)N(C)C[C@@H]1Oc2ncc(Br)cc2C(=O)N([C@@H](C)CO)C[C@@H]1C | inactive: 0.988 |
| Cc1nnn2c1COC[C@H](CNCC(C)C)C2 | inactive: 1.02 |
| COc1ccc(CN(C)C[C@@H]2OCCCC[C@@H](C)Oc3ccc(NC(=O)Nc4ccc(OC)cc4)cc3C(=O)N([C@H](C)CO)C[C@H]2C)cc1 | inactive: 0.976 |
| C[C@@H]1CN([C@@H](C)CO)C(=O)Cc2cc(NC(=O)Cn3cnnn3)ccc2O[C@H]1CN(C)Cc1ccc2c(c1)OCO2 | inactive: 0.959 |
| C[C@H](CO)N1C[C@H](C)[C@H](CN(C)C(=O)Nc2ccc(C(F)(F)F)cc2)Oc2c(NC(=O)Nc3ccc(F)cc3)cccc2C1=O | inactive: 1 |
| CC(C)NC(=O)N(C)C[C@@H]1Oc2ccc(NC(=O)CCN3CCOCC3)cc2CC(=O)N([C@@H](C)CO)C[C@@H]1C | inactive: 1.01 |

| Compound | relative growth |
| --- | --- |
| O=C1CO[C@H]2CN(S(=O)(=O)c3ccccc3)C[C@@H]2N1 | inactive: 1.01 |
| COc1ccc(NC(=O)N(C)C[C@@H]2OCCCC[C@H](C)Oc3ccc(NC(=O)NC4CCCCC4)cc3C(=O)N([C@H](C)CO)C[C@@H]2C)cc1 | inactive: 1.04 |
| CO[C@@H](C(=O)N(C)C[C@H]1OCc2ccccc2-c2c(n(C)c3ccccc23)C(=O)N([C@@H](C)CO)C[C@H]1C)c1ccccc1 | inactive: 0.995 |
| Cc1ccc(O)c(-c2cc(-c3ccc(C(C)(C)C)cc3)[nH]n2)c1 | inactive: 1.02 |
| C[C@H]1CCCCO[C@@H](CN(C)CC2CCCCC2)[C@@H](C)CN([C@@H](C)CO)C(=O)c2cc(NC(=O)c3ccncc3)ccc2O1 | inactive: 0.936 |
| C[C@@H]1CN([C@H](C)CO)C(=O)Cc2cc(NC(=O)Nc3cccc4ccccc34)ccc2O[C@H]1CN(C)Cc1ccc(Cl)c(Cl)c1 | inactive: 1.01 |
| C[C@H](CO)N1C[C@H](C)[C@H](CN(C)S(=O)(=O)c2cccs2)Oc2ccc(NS(C)(=O)=O)cc2CC1=O | inactive: 1.01 |
| C[C@@H]1CN([C@H](C)CO)C(=O)c2cc(NS(=O)(=O)c3cccs3)ccc2O[C@H]1CN(C)S(=O)(=O)c1ccccc1 | inactive: 0.959 |
| C[C@@H]1CN([C@H](C)CO)C(=O)c2cccc(NC(=O)C3CCOCC3)c2O[C@H]1CN(C)Cc1ccncc1 | inactive: 1.05 |
| CC(C)NC(=O)Nc1ccc2c(c1)C(=O)N([C@@H](C)CO)C[C@@H](C)[C@H](CN(C)CC1CCCCC1)OCCCC[C@@H](C)O2 | inactive: 1.01 |
| C[C@@H]1CN([C@H](C)CO)C(=O)Cc2cc(NC(=O)Cn3cnnn3)ccc2O[C@@H]1CN(C)Cc1ccc2c(c1)OCO2 | inactive: 0.836 |
| CCc1nc2ccc(C(=O)N3CCN(C(=O)c4ccco4)CC3)cn2c1N(C)C(=O)COc1ccccc1 | inactive: 1 |
| COCCNC(=O)C[C@H]1CC[C@@H](NS(=O)(=O)c2ccc(C)cc2)[C@@H](CO)O1 | inactive: 1.01 |
| COc1ccc(-c2nc(-c3ccc(C)cc3C)cs2)cc1 | inactive: 1.01 |
| C[C@H]1CN([C@@H](C)CO)C(=O)c2cc(NS(C)(=O)=O)ccc2O[C@H]1CN(C)C(=O)NC1CCCCC1 | inactive: 0.993 |
| COc1ccc(NC(=O)N2C[C@@H](O)COC[C@@H]3O[C@H](CC(=O)NC4Cc5ccccc5C4)CC[C@H]32)cc1 | inactive: 1.04 |
| Cc1noc(C)c1NC(=O)Nc1cccc2c1O[C@H](CN(C)Cc1ccc(C(F)(F)F)cc1)[C@H](C)CN([C@H](C)CO)C2=O | inactive: 1.01 |
| COc1cc2c3cc1Oc1cc(ccc1O)CC1c4c(cc(OC)c(O)c4Oc4ccc(cc4)CC3N(C)CC2)CC[N+]1(C)C.Cl.O.O.O.O.O.[Cl-] (stereo unspecified) | inactive: 0.995 |
| C[C@@H]1CCCCO[C@@H](CN(C)C(=O)Nc2ccc3c(c2)OCO3)[C@H](C)CN([C@@H](C)CO)C(=O)c2cc(NC(=O)NC3CCCCC3)ccc2O1 | inactive: 0.992 |
| C[C@@H]1CN([C@@H](C)CO)C(=O)CCCn2cc(nn2)CO[C@H]1CN(C)S(=O)(=O)c1ccc(-c2ccccc2)cc1 | inactive: 0.969 |
| C=CCOC(=O)[C@H]1[C@@H]2C(=O)O[C@@H](c3ccccc3)[C@@H](c3ccccc3)N2[C@@H](c2ccc(OCCOC(=O)[C@H]3C[C@H]4C(=O)N[C@@H](CC(C)C)C(=O)N4[C@H]3c3ccc(O)cc3)cc2)[C@]12C(=O)Nc1ccc(I)cc12 | inactive: 1 |

| Compound | relative growth |
| --- | --- |
| CCOC(=O)C1=C(CN2CCOCC2)NC(c2nccs2)=N[C@@H]1c1ccc(F)cc1Br | inactive: 0.959 |
| COCC#Cc1cnc2c(c1)C(=O)N([C@H](C)CO)C[C@H](C)[C@H](CN(C)S(=O)(=O)c1cn(C)cn1)O2 | inactive: 0.979 |
| C[C@@H]1CN([C@H](C)CO)C(=O)c2cc(NS(=O)(=O)c3ccc(F)cc3)ccc2O[C@@H](C)CCCCO[C@@H]1CN(C)S(=O)(=O)c1ccc(Cl)cc1 | inactive: 1.01 |
| COCCCNC(=O)[C@@]1(Sc2ccc(C)cc2)CC(=O)N(Cc2cc(C(F)(F)F)cc(C(F)(F)F)c2)[C@@H]1c1ccc(CO)cc1 | inactive: 0.925 |
| CCCC(=O)Nc1ccc2c(c1)OC[C@@H](C)N(Cc1ccc(-c3ccccn3)cc1)C[C@@H](C)[C@H](OC)CN(C)C2=O | inactive: 1.01 |
| CO[C@H]1CN(C)C(=O)c2ccc(NS(=O)(=O)c3ccccc3)cc2OC[C@@H](C)N(C(=O)NC(C)C)C[C@H]1C | inactive: 0.991 |
| COc1ccc(S(=O)(=O)Nc2ccc3c(c2)C(=O)N([C@H](C)CO)C[C@H](C)[C@H](CN(C)C(=O)NC(C)C)O3)cc1 | inactive: 1 |
| C[C@@H]1CN([C@@H](C)CO)C(=O)c2cc(NC(=O)c3ccccc3)ccc2O[C@@H](C)CCCCO[C@H]1CN(C)C(=O)CCC(F)(F)F | inactive: 0.973 |
| CO[C@H]1CN(C)C(=O)c2cc(NS(C)(=O)=O)ccc2OC[C@H](C)N(S(C)(=O)=O)C[C@@H]1C | inactive: 0.995 |
| C[C@H](CO)N1C[C@H](C)[C@H](CN(C)C(=O)Cc2ccncc2)Oc2cc(C#Cc3ccccc3F)ccc2S1(=O)=O | inactive: 0.977 |
| O=C(O)CSCC(=O)N1CCCCC1 | inactive: 1.01 |
| C[C@@H]1CN([C@H](C)CO)C(=O)c2cc(NC(=O)Nc3ccc(C(F)(F)F)cc3)ccc2O[C@@H]1CN(C)Cc1ccncc1 | inactive: 0.99 |
| C/C=C/c1ccc2c(c1)O[C@@H](CN(C)Cc1ccc(C(=O)O)cc1)[C@@H](C)CN([C@@H](C)CO)S2(=O)=O | inactive: 1.02 |
| NCCOB(c1ccccc1)c1ccccc1 | inactive: 0.954 |
| CCNC(=O)C[C@@H]1CC[C@H](NC(=O)C2CC2)[C@@H](CO)O1 | inactive: 1 |
| NC(=O)C1N=CN([C@@H]2O[C@H](CO)[C@@H](O)[C@H]2O)C1=O (stereo partly specified) | inactive: 1.02 |
| C[C@H]1CN([C@@H](C)CO)C(=O)c2cc(NS(=O)(=O)c3ccc(F)cc3)ccc2O[C@H]1CN(C)C(=O)Nc1cccc2ccccc12 | inactive: 1 |
| C[C@@H]1CCCCO[C@@H](CN(C)C(=O)c2ccccc2)[C@H](C)CN([C@@H](C)CO)C(=O)c2cc(NS(=O)(=O)c3ccc(Cl)cc3)ccc2O1 | inactive: 1.04 |
| C[C@@H]1CCCCO[C@@H](CN(C)C(=O)NC2CCCCC2)[C@@H](C)CN([C@H](C)CO)C(=O)c2cc(NC(=O)c3ccccc3)ccc2O1 | inactive: 1.02 |
